# Assay results as given in the supplement of paper PMC8728848.
# Some of the results follow.
# Experiments:
# Assay in all cases: glycan array binding signal (z-score within array); higher = stronger binding
# Details in all cases: glycan notation: IUPAC condensed, linker removed
# [1] = target: Gal(b1-3)[GlcNAc(b1-6)]GalNAc
# Procedure, shortened: (§1)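 From the Consortium for Functional Glycomics database, 3228 arrays were curated, keeping only those whose protein sequence was available. Binding is given as a within-array Z-score averaged across arrays sharing a protein sequence and across linkers. Negative Z-scores can be read as non-binding.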
# [2] = target: Gal(b1-3)[Neu5Ac(a2-6)]GalNAc
# Procedure, shortened: as §1
# [3] = target: Gal(b1-3)[Neu5Ac(a2-6)]GlcNAc(b1-4)Gal(b1-4)Glc
# Procedure, shortened: as §1
# [4] = target: Gal(b1-3)[Neu5Ac(b2-6)]GalNAc
# Procedure, shortened: as §1
# [5] = target: Gal(b1-4)Gal
# Procedure, shortened: as §1
# [6] = target: Gal(b1-4)GalNAc(a1-3)[Fuc(a1-2)]Gal(b1-4)GlcNAc
# Procedure, shortened: as §1
# [7] = target: Gal(b1-4)GalNAc(b1-3)[Fuc(a1-2)]Gal(b1-4)GlcNAc
# Procedure, shortened: as §1
# [8] = target: Gal(b1-4)Glc
# Procedure, shortened: as §1
# [9] = target: Gal(b1-4)Glc6S
# Procedure, shortened: as §1
# [10] = target: Gal(b1-4)GlcNAc
# Procedure, shortened: as §1
# [11] = target: Gal(b1-4)GlcNAc(a1-6)Gal(b1-4)GlcNAc
# Procedure, shortened: as §1
# [12] = target: Gal(b1-4)GlcNAc(b1-2)Man
# Procedure, shortened: as §1
# [13] = target: Gal(b1-4)GlcNAc(b1-2)Man(a1-3)Man(b1-4)GlcNAc(b1-4)GlcNAc
# Procedure, shortened: as §1
# [14] = target: Gal(b1-4)GlcNAc(b1-2)Man(a1-3)[Gal(b1-4)GlcNAc(b1-2)Man(a1-6)]Man(b1-4)GlcNAc(b1-4)GlcNAc
# Procedure, shortened: as §1
# [15] = target: Gal(b1-4)GlcNAc(b1-2)Man(a1-3)[Gal(b1-4)GlcNAc(b1-2)Man(a1-6)]Man(b1-4)GlcNAc(b1-4)[Fuc(a1-6)]GlcNAc
# Procedure, shortened: as §1
# [16] = target: Gal(b1-4)GlcNAc(b1-2)Man(a1-3)[Gal(b1-4)GlcNAc(b1-2)Man(a1-6)][Gal(b1-4)GlcNAc(b1-4)]Man(b1-4)GlcNAc(b1-4)[Fuc(a1-6)]GlcNAc
# Procedure, shortened: as §1
# [17] = target: Gal(b1-4)GlcNAc(b1-2)Man(a1-3)[Gal(b1-4)GlcNAc(b1-2)Man(a1-6)][GlcNAc(b1-4)]Man(b1-4)GlcNAc(b1-4)[Fuc(a1-6)]GlcNAc
# Procedure, shortened: as §1
# [18] = target: Gal(b1-4)GlcNAc(b1-2)Man(a1-3)[GlcNAc(b1-2)Man(a1-6)]Man(b1-4)GlcNAc(b1-4)GlcNAc
# Procedure, shortened: as §1
# [19] = target: Gal(b1-4)GlcNAc(b1-2)Man(a1-3)[GlcNAc(b1-4)][Gal(b1-4)GlcNAc(b1-2)Man(a1-6)]Man(b1-4)GlcNAc(b1-4)GlcNAc
# Procedure, shortened: as §1
# [20] = target: Gal(b1-4)GlcNAc(b1-2)Man(a1-3)[Man(a1-6)]Man(b1-4)GlcNAc(b1-4)GlcNAc
# Procedure, shortened: as §1
# [21] = target: Gal(b1-4)GlcNAc(b1-2)Man(a1-6)Man(b1-4)GlcNAc(b1-4)GlcNAc
# Procedure, shortened: as §1
# [22] = target: Gal(b1-4)GlcNAc(b1-2)Man(a1-6)[GlcNAc(b1-2)Man(a1-3)]Man(b1-4)GlcNAc(b1-4)GlcNAc
# Procedure, shortened: as §1
# [23] = target: Gal(b1-4)GlcNAc(b1-2)Man(a1-6)[Man(a1-3)]Man(b1-4)GlcNAc(b1-4)GlcNAc
# Procedure, shortened: as §1
# [24] = target: Gal(b1-4)GlcNAc(b1-2)[Gal(b1-4)GlcNAc(b1-4)]Man(a1-3)[Gal(b1-4)GlcNAc(b1-2)Man(a1-6)]Man(b1-4)GlcNAc(b1-4)GlcNAc
# Procedure, shortened: as §1
# [25] = target: Gal(b1-4)GlcNAc(b1-2)[Gal(b1-4)GlcNAc(b1-4)]Man(a1-3)[Gal(b1-4)GlcNAc(b1-2)[Gal(b1-4)GlcNAc(b1-6)]Man(a1-6)]Man(b1-4)GlcNAc(b1-4)GlcNAc
# Procedure, shortened: as §1
# [26] = target: Gal(b1-4)GlcNAc(b1-2)[Gal(b1-4)GlcNAc(b1-4)]Man(a1-3)[GlcNAc(b1-4)][Gal(b1-4)GlcNAc(b1-2)Man(a1-6)]Man(b1-4)GlcNAc(b1-4)GlcNAc
# Procedure, shortened: as §1
# [27] = target: Gal(b1-4)GlcNAc(b1-2)[Gal(b1-4)GlcNAc(b1-4)]Man(a1-3)[GlcNAc(b1-4)][Gal(b1-4)GlcNAc(b1-2)[Gal(b1-4)GlcNAc(b1-6)]Man(a1-6)]Man(b1-4)GlcNAc(b1-4)GlcNAc
# Procedure, shortened: as §1
# [28] = target: Gal(b1-4)GlcNAc(b1-2)[Gal(b1-4)GlcNAc(b1-6)]Man(a1-6)[Gal(b1-4)GlcNAc(b1-2)Man(a1-3)]Man(b1-4)GlcNAc(b1-4)GlcNAc
# Procedure, shortened: as §1
# [29] = target: Gal(b1-4)GlcNAc(b1-2)[Gal(b1-4)GlcNAc(b1-6)]Man(a1-6)[Gal(b1-4)GlcNAc(b1-2)Man(a1-3)]Man(b1-4)GlcNAc(b1-4)[Fuc(a1-6)]GlcNAc
# Procedure, shortened: as §1
# [30] = target: Gal(b1-4)GlcNAc(b1-2)[Gal(b1-4)GlcNAc(b1-6)]Man(a1-6)[GlcNAc(b1-4)][Gal(b1-4)GlcNAc(b1-2)Man(a1-3)]Man(b1-4)GlcNAc(b1-4)GlcNAc
# Procedure, shortened: as §1
# [31] = target: Gal(b1-4)GlcNAc(b1-2)[Gal(b1-4)GlcNAc(b1-6)]Man(a1-6)[GlcNAc(b1-4)][Gal(b1-4)GlcNAc(b1-2)[Gal(b1-4)GlcNAc(b1-4)]Man(a1-3)]Man(b1-4)GlcNAc(b1-4)[Fuc(a1-6)]GlcNAc
# Procedure, shortened: as §1
# [32] = target: Gal(b1-4)GlcNAc(b1-3)Gal(b1-3)GalNAc
# Procedure, shortened: as §1
# [33] = target: Gal(b1-4)GlcNAc(b1-3)Gal(b1-3)GlcNAc
# Procedure, shortened: as §1
# [34] = target: Gal(b1-4)GlcNAc(b1-3)Gal(b1-4)Glc
# Procedure, shortened: as §1
# [35] = target: Gal(b1-4)GlcNAc(b1-3)Gal(b1-4)GlcNAc
# Procedure, shortened: as §1
# [36] = target: Gal(b1-4)GlcNAc(b1-3)Gal(b1-4)GlcNAc(b1-2)Man(a1-3)[Gal(b1-4)GlcNAc(b1-3)Gal(b1-4)GlcNAc(b1-2)Man(a1-6)]Man(b1-4)GlcNAc(b1-4)GlcNAc
# Procedure, shortened: as §1
# [37] = target: Gal(b1-4)GlcNAc(b1-3)Gal(b1-4)GlcNAc(b1-2)Man(a1-3)[Gal(b1-4)GlcNAc(b1-3)Gal(b1-4)GlcNAc(b1-2)Man(a1-6)]Man(b1-4)GlcNAc(b1-4)[Fuc(a1-6)]GlcNAc
# Procedure, shortened: as §1
# [38] = target: Gal(b1-4)GlcNAc(b1-3)Gal(b1-4)GlcNAc(b1-2)[Gal(b1-4)GlcNAc(b1-3)Gal(b1-4)GlcNAc(b1-6)]Man(a1-6)[Gal(b1-4)GlcNAc(b1-3)Gal(b1-4)GlcNAc(b1-2)Man(a1-3)]Man(b1-4)GlcNAc(b1-4)GlcNAc
# Procedure, shortened: as §1
binder,measurement,setting,value
FliD (Clostridium difficile) (protein) MSSISPVRVTGLSGNFDMEGIIEASMIRDKEKVNKAKQDQQIVKWKQEIYRDIIKESKNLYDKYLNGDSPNSITNKKAYSATRITSSDESIIVAKGSAGAEKINYQFAVSQMAEPAKVTIKLNSSDPIVQQFPPNASGASSLNIGGVNIPISEQDTTSTIVSKINSLCADNDIRASYSEMTGELIISRKQTGSSSDIDLKVIGNDSLAGQIASDNGITFTTDASGTKSAVVYGKNLEADVTDDQGRVTHISKEQNSFKIDNIDYNVNSKGSAKLVSVTDTEEATKNMKAFVDDYNALMDKVYGLVTTKKSKDYPPLTDEQKDDMTTEEIEKWEKKAKEGILRNDDELRAFVEDIQSMFFGDADTIIALRKLGISEHENYNKKGQISFNADTFSKALIDDSDKVYKALAGYSSNYDDKGMFEKLKKIVFEYSGSSASKLTKKAGMENSSSASQNVYSKQIAEQERNISRLVEKMNDKEKRLYAKYSALESLLNKYSSQMNYFSQAQGN,glycan array binding signal (z-score),[1],-0.239
same,glycan array binding signal (z-score),[2],-0.243
same,glycan array binding signal (z-score),[3],-0.186
same,glycan array binding signal (z-score),[4],-0.249
same,glycan array binding signal (z-score),[5],0.115
same,glycan array binding signal (z-score),[6],-0.249
same,glycan array binding signal (z-score),[7],-0.247
same,glycan array binding signal (z-score),[8],-0.175
same,glycan array binding signal (z-score),[9],-0.106
same,glycan array binding signal (z-score),[10],-0.221
same,glycan array binding signal (z-score),[11],-0.083
same,glycan array binding signal (z-score),[12],0.089
same,glycan array binding signal (z-score),[13],-0.137
same,glycan array binding signal (z-score),[14],-0.143
same,glycan array binding signal (z-score),[15],-0.22
same,glycan array binding signal (z-score),[16],-0.238
same,glycan array binding signal (z-score),[17],-0.23
same,glycan array binding signal (z-score),[18],-0.236
same,glycan array binding signal (z-score),[19],-0.235
same,glycan array binding signal (z-score),[20],-0.11
same,glycan array binding signal (z-score),[21],-0.233
same,glycan array binding signal (z-score),[22],-0.227
same,glycan array binding signal (z-score),[23],-0.108
same,glycan array binding signal (z-score),[24],-0.254
same,glycan array binding signal (z-score),[25],-0.202
same,glycan array binding signal (z-score),[26],-0.207
same,glycan array binding signal (z-score),[27],-0.21
same,glycan array binding signal (z-score),[28],-0.161
same,glycan array binding signal (z-score),[29],-0.222
same,glycan array binding signal (z-score),[30],-0.175
same,glycan array binding signal (z-score),[31],-0.175
same,glycan array binding signal (z-score),[32],-0.206
same,glycan array binding signal (z-score),[33],-0.084
same,glycan array binding signal (z-score),[34],-0.186
same,glycan array binding signal (z-score),[35],-0.209
same,glycan array binding signal (z-score),[36],-0.105
same,glycan array binding signal (z-score),[37],1.44
same,glycan array binding signal (z-score),[38],0.049
